From publication doi:10.1101/2025.03.18.643855
Positions count from the first letter of the chain named. No constants are given. Whether binding was seen depends on the method and setting. In cells and extracts the contact can be indirect. Some binding calls cover weakened binding; strength is not graded here. Where a sequence is shown, tags or fusion partners need not be part of it.

The chains behind the UniProt entries cited, without tags or fusion partners.
UniProt Q12888: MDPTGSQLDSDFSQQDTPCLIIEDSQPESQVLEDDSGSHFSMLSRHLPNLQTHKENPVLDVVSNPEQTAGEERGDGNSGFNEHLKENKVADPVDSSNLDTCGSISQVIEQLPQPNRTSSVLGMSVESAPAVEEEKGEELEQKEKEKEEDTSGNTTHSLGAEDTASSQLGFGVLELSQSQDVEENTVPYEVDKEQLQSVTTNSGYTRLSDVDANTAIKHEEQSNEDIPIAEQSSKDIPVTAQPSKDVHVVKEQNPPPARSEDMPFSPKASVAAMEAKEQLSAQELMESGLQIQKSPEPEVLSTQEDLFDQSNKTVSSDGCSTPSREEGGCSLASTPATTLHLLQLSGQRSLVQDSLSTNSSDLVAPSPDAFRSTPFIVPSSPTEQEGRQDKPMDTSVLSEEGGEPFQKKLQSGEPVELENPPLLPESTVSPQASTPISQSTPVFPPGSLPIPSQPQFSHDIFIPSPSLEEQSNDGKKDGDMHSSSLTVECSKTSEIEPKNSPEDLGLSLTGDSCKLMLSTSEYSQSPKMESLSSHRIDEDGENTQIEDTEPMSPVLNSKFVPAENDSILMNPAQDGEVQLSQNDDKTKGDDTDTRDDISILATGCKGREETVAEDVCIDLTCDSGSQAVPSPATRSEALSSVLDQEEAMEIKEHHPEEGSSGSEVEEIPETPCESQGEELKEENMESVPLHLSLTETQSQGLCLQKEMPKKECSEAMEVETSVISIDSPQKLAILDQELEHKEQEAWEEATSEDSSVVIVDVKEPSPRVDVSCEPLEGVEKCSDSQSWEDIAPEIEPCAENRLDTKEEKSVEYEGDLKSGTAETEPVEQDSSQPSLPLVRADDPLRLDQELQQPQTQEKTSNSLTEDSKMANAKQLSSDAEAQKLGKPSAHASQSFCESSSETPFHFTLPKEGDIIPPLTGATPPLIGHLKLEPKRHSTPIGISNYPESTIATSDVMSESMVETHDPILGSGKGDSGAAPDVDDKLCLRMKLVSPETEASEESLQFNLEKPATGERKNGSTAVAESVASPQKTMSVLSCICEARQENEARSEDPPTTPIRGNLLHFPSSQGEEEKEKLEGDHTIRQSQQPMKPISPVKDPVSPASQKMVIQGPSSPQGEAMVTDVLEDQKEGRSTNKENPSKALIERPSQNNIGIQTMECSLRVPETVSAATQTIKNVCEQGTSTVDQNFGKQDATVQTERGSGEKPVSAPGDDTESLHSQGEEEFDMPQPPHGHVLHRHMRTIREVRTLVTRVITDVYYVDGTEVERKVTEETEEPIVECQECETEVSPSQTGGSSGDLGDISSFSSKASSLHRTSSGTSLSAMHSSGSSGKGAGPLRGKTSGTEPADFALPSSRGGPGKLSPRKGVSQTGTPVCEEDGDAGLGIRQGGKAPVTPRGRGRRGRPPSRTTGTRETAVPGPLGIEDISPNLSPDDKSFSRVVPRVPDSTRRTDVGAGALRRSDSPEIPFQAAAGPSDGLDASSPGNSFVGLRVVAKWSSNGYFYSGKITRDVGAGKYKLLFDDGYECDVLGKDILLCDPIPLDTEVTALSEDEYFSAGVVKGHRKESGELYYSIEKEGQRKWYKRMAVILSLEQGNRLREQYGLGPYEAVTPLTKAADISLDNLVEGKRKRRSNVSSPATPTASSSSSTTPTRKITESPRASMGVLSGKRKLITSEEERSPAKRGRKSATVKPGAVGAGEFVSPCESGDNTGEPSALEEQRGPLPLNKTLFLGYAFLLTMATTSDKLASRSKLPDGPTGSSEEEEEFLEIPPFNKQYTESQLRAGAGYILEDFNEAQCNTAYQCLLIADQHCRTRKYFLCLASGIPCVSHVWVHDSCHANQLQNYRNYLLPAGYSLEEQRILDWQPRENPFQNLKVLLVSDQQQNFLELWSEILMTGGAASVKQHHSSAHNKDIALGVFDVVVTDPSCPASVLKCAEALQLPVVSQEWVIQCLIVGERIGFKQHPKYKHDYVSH

Columns and labels:
[1] = target: T1, endogenous GMCL1 with a knocked-in C-terminal 2×Flag tag (GMCL1 FLAG knock-in HCT116) (human (endogenous in HCT116)) (UniProt Q96IK5); test: co-IP; M phase-synchronized GMCL1 FLAG knock-in HCT116 cells; GMCL1 immunoprecipitated with FLAG beads, blots for endogenous CUL3 and 53BP1
T1 sequence: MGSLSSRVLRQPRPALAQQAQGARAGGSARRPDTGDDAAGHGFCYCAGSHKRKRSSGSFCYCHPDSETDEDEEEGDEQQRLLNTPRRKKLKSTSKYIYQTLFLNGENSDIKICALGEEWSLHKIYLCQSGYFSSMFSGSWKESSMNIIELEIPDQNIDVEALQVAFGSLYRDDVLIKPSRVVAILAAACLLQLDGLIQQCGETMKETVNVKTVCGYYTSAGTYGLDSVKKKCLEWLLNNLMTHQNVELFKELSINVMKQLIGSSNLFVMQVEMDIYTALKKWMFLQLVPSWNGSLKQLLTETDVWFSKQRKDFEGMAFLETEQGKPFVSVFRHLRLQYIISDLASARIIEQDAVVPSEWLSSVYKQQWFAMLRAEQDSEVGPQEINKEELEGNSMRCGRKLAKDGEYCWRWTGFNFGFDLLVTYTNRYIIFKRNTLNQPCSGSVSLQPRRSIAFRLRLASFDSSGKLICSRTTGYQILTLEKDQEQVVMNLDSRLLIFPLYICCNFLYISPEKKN

[2] = target: T2, FLAG-GMCL1 WT (wild-type human germ cell-less protein-like 1) (human) (UniProt Q96IK5); test: co-IP; FLAG-tagged GMCL1 (WT or mutants) or GMCL2 transfected in HEK293T (MLN4924 3 h in Figure 1C), FLAG-M2 beads, 4°C 2 h, lysis buffer 25 mM Tris-HCl pH 8.0, 150 mM NaCl, 0.2% NP-40; blots for endogenous 53BP1 and CUL3
T2 sequence: T1 sequence

FLAG-GMCL1 R433A (human) = target: T3, FLAG-GMCL1 R433A (human) (UniProt Q96IK5); test: as above
T3 sequence: T1 sequence with R433A

FLAG-GMCL2 (human) = target: T4, FLAG-GMCL2 (human) (UniProt Q8NEA9); test: as above
T4 sequence: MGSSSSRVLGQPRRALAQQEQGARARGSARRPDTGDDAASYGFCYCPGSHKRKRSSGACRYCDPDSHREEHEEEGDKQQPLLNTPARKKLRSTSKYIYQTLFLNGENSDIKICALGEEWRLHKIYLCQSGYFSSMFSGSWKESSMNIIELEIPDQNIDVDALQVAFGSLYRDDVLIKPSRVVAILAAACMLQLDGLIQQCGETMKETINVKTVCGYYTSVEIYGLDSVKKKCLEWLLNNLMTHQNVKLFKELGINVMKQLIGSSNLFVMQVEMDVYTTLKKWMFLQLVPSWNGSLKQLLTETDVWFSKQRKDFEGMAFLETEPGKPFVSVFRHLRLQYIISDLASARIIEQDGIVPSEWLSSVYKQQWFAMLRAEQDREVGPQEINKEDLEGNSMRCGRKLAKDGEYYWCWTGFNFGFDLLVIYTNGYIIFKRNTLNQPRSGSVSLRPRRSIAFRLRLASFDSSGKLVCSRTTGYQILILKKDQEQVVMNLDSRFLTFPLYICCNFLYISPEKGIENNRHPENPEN

| binding [1] | binding [2] | binding (FLAG-GMCL1 R433A (human)) | binding (FLAG-GMCL2 (human)) | Substance |
| --- | --- | --- | --- | --- |
| binds | – | – | – | endogenous 53BP1, HCT116 (from UniProt Q12888 1-1972) |
| – | binds | no binding | no binding | endogenous 53BP1 (p53-binding protein 1), HEK293T (from UniProt Q12888 1-1972) |
